Results published in PMC11164869.
No constants are given. Whether binding was seen depends on the method and setting. Binding seen in cells or lysates may run through a third protein. Tags and fused reporters may be left off the sequences shown.

Tests used:
[1] = biological target: T1, Flag-IRAK2 (UniProt O43187); assay: co-IP; HEK293T cells co-transfected with tagged plasmids; IP buffer 1% NP-40, 150 mM NaCl, 10 mM Tris-HCl pH 7.4, 1 mM EDTA; antibody with Protein A/G PLUS Agarose overnight; immunoblot
T1 sequence: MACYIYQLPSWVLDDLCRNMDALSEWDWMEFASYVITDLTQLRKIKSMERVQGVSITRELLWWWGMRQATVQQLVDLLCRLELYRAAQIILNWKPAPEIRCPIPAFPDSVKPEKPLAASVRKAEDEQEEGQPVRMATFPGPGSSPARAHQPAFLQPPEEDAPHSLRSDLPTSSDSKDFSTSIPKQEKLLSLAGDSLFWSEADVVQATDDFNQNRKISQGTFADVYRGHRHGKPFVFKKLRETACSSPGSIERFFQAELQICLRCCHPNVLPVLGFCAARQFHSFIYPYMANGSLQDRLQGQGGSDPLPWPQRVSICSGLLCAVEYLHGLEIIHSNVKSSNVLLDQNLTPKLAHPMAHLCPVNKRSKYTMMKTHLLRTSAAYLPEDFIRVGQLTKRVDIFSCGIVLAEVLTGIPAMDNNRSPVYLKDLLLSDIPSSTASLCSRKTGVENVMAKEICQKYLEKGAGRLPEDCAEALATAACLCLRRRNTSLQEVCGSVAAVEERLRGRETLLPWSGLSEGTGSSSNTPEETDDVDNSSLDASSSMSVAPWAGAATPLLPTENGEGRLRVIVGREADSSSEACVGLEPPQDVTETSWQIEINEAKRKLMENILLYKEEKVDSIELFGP

[2] = biological target: T2, Flag-IRAK4 (UniProt Q9NWZ3); assay: as above
T2 sequence: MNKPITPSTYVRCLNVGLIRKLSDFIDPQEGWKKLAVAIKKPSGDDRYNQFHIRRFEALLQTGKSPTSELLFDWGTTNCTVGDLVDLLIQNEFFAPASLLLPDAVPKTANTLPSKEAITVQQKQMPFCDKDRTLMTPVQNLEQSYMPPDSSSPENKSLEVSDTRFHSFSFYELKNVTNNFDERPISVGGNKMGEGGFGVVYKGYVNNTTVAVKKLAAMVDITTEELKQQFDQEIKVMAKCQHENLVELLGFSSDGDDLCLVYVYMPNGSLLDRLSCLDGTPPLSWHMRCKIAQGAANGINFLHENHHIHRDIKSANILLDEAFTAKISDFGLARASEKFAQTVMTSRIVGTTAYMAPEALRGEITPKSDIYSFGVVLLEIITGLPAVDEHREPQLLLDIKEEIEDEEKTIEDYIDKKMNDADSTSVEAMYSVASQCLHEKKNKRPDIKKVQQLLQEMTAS

B1: Myc-OTUD5 (enzyme, UniProt Q96G74 1-571)
chain: MTILPKKKPPPPDADPANEPPPPGPMPPAPRRGGGVGVGGGGTGVGGGDRDRDSGVVGARPRASPPPQGPLPGPPGALHRWALAVPPGAVAGPRPQQASPPPCGGPGGPGGGPGDALGAAAAGVGAAGVVVGVGGAVGVGGCCSGPGHSKRRRQAPGVGAVGGGSPEREEVGAGYNSEDEYEAAAARIEAMDPATVEQQEHWFEKALRDKKGFIIKQMKEDGACLFRAVADQVYGDQDMHEVVRKHCMDYLMKNADYFSNYVTEDFTTYINRKRKNNCHGNHIEMQAMAEMYNRPVEVYQYSTGTSAVEPINTFHGIHQNEDEPIRVSYHRNIHYNSVVNPNKATIGVGLGLPSFKPGFAEQSLMKNAIKTSEESWIEQQMLEDKKRATDWEATNEAIEEQVARESYLQWLRDQEKQARQVRGPSQPRKASATCSSATAAASSGLEEWTSRSPRQRSSASSPEHPELHAELGMKPPSPGTVLALAKPPSPCAPGTSSQFSAGADRATSPLVSLYPALECRALIQQMSPSAFGLNDWDDDEILASVLAVSQQEYLDSMKKNKVHRDPPPDKS
- binding [1]: no binding
- binding [2]: no binding
